From ChEMBL document CHEMBL4888484, “Replenishing the malaria drug discovery pipeline: Screening and hit evaluation of the MMV Hit Generation Library 1 (HGL1) against asexual blood stage Plasmodium falciparum ,using a nano luciferase reporter read-out” (2022) come the findings set out here.

In all, about 150,000 compounds went through this assay and about 540 (0.36%) showed an effect of 50% or more. Some of the results follow.

Usually % Inhibition stands for the drop in the measured response relative to a control, in per cent.

In this assay the test system is Plasmodium falciparum. Description: Primary screen in NF54 nanoGlo assay, in single point, at 2uM, 72h; a lower Z score goes with more inhibition. It is filed as functional, Erythrocyte. Conditions: timepoint 72 hour.
On to `CC[C@@](C)(C#N)NC(=O)Cc1cccc(F)c1`, for which the “% Inhibition” value is given as -5% and the Z score is 1.1.
In the same order, the values of `O=C(NCc1ccc(N2CC=CC2)cc1)Nc1ccncc1` are -1% and 0.09.
For the molecule `O=C(Nc1cccc(Oc2c(F)c(F)c(Oc3cccc(NC(=O)c4ccccc4Cl)c3)c(F)c2F)c1)c1ccccc1Cl`, the “% Inhibition” value is given as 0% and the Z score amounted to 0.06.
Take `COc1ccc(C(=O)Nc2ccc3nc(N4CCC(C)CC4)cc(C)c3c2)cc1OC`: the “% Inhibition” value came to 7% and the Z score is given as -1.1.
Turning to `CC(C)c1nsc(NCC2(O)CN(C(=O)OC(C)(C)C)C2)n1`, the “% Inhibition” value was -10% and the Z score worked out at 0.95.
The corresponding values for `O=C(NCC1(CO)CCOCC1)N(c1ccccc1)c1ccccc1` are -1% and 0.08.
In the same order, the values of `C[C@@H]1CN(C[C@@H]2CN(Cc3cccc(F)c3F)C[C@@H]2CO)C[C@H](C)O1` are 7% and -1.17.
In the same order, the values of `CCCC(=O)N(Cc1c(C)nn(-c2cccc(F)c2)c1N1CCN(C(C)C)CC1)C(C)C` are 2% and -0.27.
Consider `O=C1N[C@H]2C[C@@H](C(=O)NC[C@H]3O[C@H](CCOc4cc(-c5ccncc5)ccc41)CC[C@@H]3O)N(C1CCC1)C2`, for which the “% Inhibition” value was 34% and the Z score is -3.85.
In the same order, the values of `C[C@H](NC1CC(=O)NC1=O)c1ccccc1` (stereo partly specified) are -14% and 1.87.
In the same order, the values of `Cc1ccc(S(=O)(=O)CCC(=O)NC2CCCC2)c(C)c1` are -5% and 0.92.
Consider `Cc1ccc(C(=O)N(CC(C)C)CC2CN(Cc3cccc(C)c3)CC2c2ccccc2)cc1` (stereo unspecified), for which the “% Inhibition” value was -11% and the Z score is recorded as 2.18.
In the same order, the values of `Cc1ccc(S(=O)(=O)Nc2nc3n(n2)[C@H](c2ccccc2)CC(O)=N3)cc1` are -4% and 0.39.
In the same order, the values of `CCc1nc(-c2[nH]nc(CC)c2C)n(-c2ccc(C(=O)O)cc2)n1` are 4% and -0.49.
The corresponding values for `Cc1nn(C(C)C)cc1CN1CCOc2ccccc2[C@@H]1C(=O)O` are -2% and 0.26.
Consider `CC(C)[C@H](NC(=O)CCc1nnc(O)[nH]c1=O)c1nc2ccccc2n1C(C)C`, for which the “% Inhibition” value is -3% and the Z score worked out at 0.39.
The corresponding values for `CCn1cc(CNc2nc(-c3cccnc3)nc3c2CCNCC3)cn1` are -7% and 1.41.
The corresponding values for `CC(c1c(O)nc2ccccc2c1O)C1(C)CCC(O)C(C)(C)O1` (stereo unspecified) are -35% and 4.06.
In the same order, the values of `O=C1c2ccccc2N[C@H](c2cccc(Br)c2O)N1Cc1cccnc1` are -8% and 1.02.
Take `COc1cccc(-c2nn(C)c3sc(C(=O)N4CCN(c5ccccc5)CC4)cc23)c1`: the “% Inhibition” value was -2% and the Z score turned out to be 0.32.
In the same order, the values of `Cc1cc(C)c(S(=O)(=O)NCCC(=O)N(C)C)cc1N(C)S(C)(=O)=O` are 2% and -0.3.
The corresponding values for `O=C(CCC1CCCO1)NC1CCCCNC1=O` (stereo unspecified) are -10% and 1.58.
The corresponding values for `CNc1nc(CN2CCn3nc(CCC(=O)NC4CC4)cc3C2)cs1` are 0% and -0.08.
In the case of `CC(C)Oc1ccc(C(=O)NC[C@H]2CCS(=O)(=O)C2)cc1`, the “% Inhibition” value was -6% and the Z score is recorded as 0.89.
In the same order, the values of `O=C(O)Cc1cccc(NS(=O)(=O)c2ccc3c(c2)CCCO3)c1` are -10% and 0.88.
The corresponding values for `O=C(CNC(=O)Cc1ccccc1)NCc1ccccn1` are -3% and 0.38.
The corresponding values for `FC(F)(F)c1cccc(-c2cc(-c3csc(-c4ccccc4)n3)on2)c1` are 1% and -0.12.
On to `Cc1ccccc1NC(=O)Nc1ccn2nccc2c1`, for which the “% Inhibition” value is given as -4% and the Z score worked out at 0.64.
The corresponding values for `Cc1nc(-c2ccncc2)nc(N2CCCO[C@@H](C)C2)c1C` are 9% and -1.28.
In the same order, the values of `CCN(CC)c1nnc(-n2cccc2CN2CCN(c3ccc(F)cc3)CC2)s1` are -14% and 1.43.
The corresponding values for `c1ccc(-c2nc3nccc(-c4cccc5ccccc45)n3n2)cc1` are -19% and 2.64.
Turning to `CCNC(=O)N1CCc2cc(S(=O)(=O)N3CCN(C(=O)c4ccco4)CC3)ccc21`, the “% Inhibition” value is reported as -18% and the Z score was 2.41.
The corresponding values for `CN1CC[C@@H]2CN(C(=O)c3cc(F)c(F)cc3Cl)C[C@]2(C(=O)O)C1` are 0% and 0.09.
In the same order, the values of `Cc1cc(F)ccc1CC(=O)N1C[C@H]2CC[C@@H](C1)[C@H]2N(C)C` are -6% and 0.96.
`COc1ncncc1NC(=O)N1CCCc2ccccc2CC1`: the “% Inhibition” value was -4% and the Z score came to 0.72.
Turning to `CCN1CC[C@@]2(CCC1=O)CN(c1ncnc3c1CCC3)CCN2C`, the “% Inhibition” value is -4% and the Z score worked out at 0.74.
In the same order, the values of `CC(C)CCC1CCN(C(=O)c2cn3ccncc3n2)CC1` are 2% and -0.3.
The corresponding values for `CCC(C)C(C)N(C(=O)C[C@@H]1NC(=O)NC1=O)C1CC1` (stereo partly specified) are 3% and -0.3.
In the same order, the values of `O=C(NC1CCCc2ccccc21)C1CC=CCC1` (stereo unspecified) are 9% and -1.01.
For the molecule `COc1cc(C)ccc1Oc1ccc(F)cc1NC(=O)N(C)C[C@H]1C[C@@H](O)C1`, the “% Inhibition” value is on record as -13% and the Z score was 1.44.
The corresponding values for `CC(C)(C)OC(=O)NC(c1nc(C(C)(C)C)no1)C1CCCO1` (stereo unspecified) are -3% and 0.67.
On to `CCN1CC2(CCN(C(=O)c3cnc(C)s3)CC2)CC1=O`, for which the “% Inhibition” value is given as -4% and the Z score amounted to 0.53.
The corresponding values for `O=C(NCc1ccccc1)[C@@H]1Cc2[nH]cnc2CN1C(=O)NC1CCCCC1` are -9% and 1.18.
The corresponding values for `CC(C)(C)OC(=O)N1CC[C@H](NC(=O)CCCCN2CCOCC2)C(C)(C)C1` are -9% and 1.38.
Turning to `COC(=O)CN1CCC(NC(=O)c2ccc3c(c2)C[C@H](C)O3)CC1`, the “% Inhibition” value came to 4% and the Z score was -0.58.
The corresponding values for `Clc1cnn(CCN2CCC(OCc3cccnc3)CC2)c1` are -1% and 0.09.
In the same order, the values of `CC[C@@H](C(=O)N1CCN(Cc2ccc(C)c(C)c2)C(=O)C1)n1cccn1` are -9% and 1.49.
In the case of `Cc1[nH]c2c(CNC(=O)Cn3ccnc3)cc(F)cc2c1C`, the “% Inhibition” value is 2% and the Z score is given as -0.17.
In the same order, the values of `CC#CC(=O)Nc1ccc(N2CCOCC2=O)c(C)c1` are 3% and -0.35.
On to `CS(=O)(=O)N1CCC(C(=O)OCC(=O)NC2(C#N)CCCCC2)CC1`, for which the “% Inhibition” value is 0% and the Z score is reported as -0.06.
In the same order, the values of `CN(Cc1ccccc1)Cc1nc(CC(N)=O)nn1CC(C)(C)O` are -6% and 0.89.
In the same order, the values of `Cc1nccc(O[C@H]2CCN(C(=O)c3ccsc3)C2)n1` are 4% and -0.61.
In the same order, the values of `CC1=NN(c2ccccc2)C(=O)[C@H]1C(=O)c1ccc(C)cc1` are 29% and -3.85.
As for `CC(=O)N1CCC(NC(=O)c2cc(C(C)C)[nH]n2)CC1`, the “% Inhibition” value was determined as 6% and the Z score is -1.02.
The corresponding values for `Cc1ccc(C(=O)N2CCC(c3nc(C)no3)CC2)c(C)n1` are -15% and 2.01.
In the same order, the values of `O=C1C[C@@H](C(=O)Nc2ccc(F)c(F)c2)n2nc(-c3ccc(F)cc3)cc2N1` are 3% and -0.5.
As to `COc1ccc(CC[C@H](C)N2CCN(C/C=C/c3ccccc3)CC2)cc1`, the “% Inhibition” value is -2% and the Z score is reported as 0.46.
In the same order, the values of `CN(Cc1ccccc1F)C1CC[S+]([O-])CC1` (stereo unspecified) are -19% and 3.56.
As to `Cc1ccccc1S(=O)(=O)N1C[C@@H]2C[C@H](N(C)C)CN2C(=O)[C@@H]1C`, the “% Inhibition” value is reported as -25% and the Z score worked out at 2.17.
The corresponding values for `COc1ccccc1Oc1nc(N2CCN(C)CC2)nc2c1CN(Cc1ccc(C(F)(F)F)cc1)CC2` are -15% and 2.11.
In the same order, the values of `CC(C)(C)OC(=O)N1CC[C@@](C(=O)NOCCO)(C(F)(F)F)C1` are -7% and 1.17.
The corresponding values for `COCCN(C)Cc1ccc(CC2CCN(C(=O)c3cc4ccc(OC)cc4[nH]3)CC2)cc1` are -10% and 1.97.
Regarding `CCN(CC)S(=O)(=O)NCCc1cccc(Cl)c1`, the “% Inhibition” value is reported as -1% and the Z score was found to be 0.11.
`CC(C)COC[C@@H](O)CN1CCN(c2ccc(NC(=O)c3ccccc3)cn2)CC1`: the “% Inhibition” value is -16% and the Z score came to 2.21.
In the same order, the values of `Cc1nnc2n1CCN(C(=O)CCc1nc3ccccc3s1)[C@H]2C(=O)N1CCCC1` are -8% and 1.15.
In the same order, the values of `O=C(COC(=O)c1ccccc1-c1nc2ccccc2s1)Nc1ccc2c(c1)OCO2` are -1% and 0.2.
The corresponding values for `Nc1nnnn1CC(=O)NCc1noc(C2CCC2)n1` are 4% and -0.78.
`Cc1noc([C@H](C)Nc2ccc3c(c2)OCCCO3)n1`: the “% Inhibition” value is given as -8% and the Z score is 0.76.
Consider `CCOC1CCCN(C(=O)NC(C)C2CC2)C1` (stereo unspecified), for which the “% Inhibition” value was -4% and the Z score is recorded as 0.45.
In the same order, the values of `COc1ccc(NC(=O)CNC(=O)c2cn(-c3ccccc3OC)c(=O)c3ccccc23)c(OC)c1` are 7% and -0.8.
In the same order, the values of `COCC(=O)N1C[C@@H]2CCN(Cc3cccc(F)c3F)C[C@]2(CO)C1` are 3% and -0.5.
In the case of `CN(CC1(CO)CCC1)C(=O)Cn1cccnc1=O`, the “% Inhibition” value is 2% and the Z score is -0.31.
The corresponding values for `O=C(NCC1CCCO1)OCC1CCCO1` (stereo unspecified) are -2% and 0.23.
For `CCC(=O)N1CCc2cc(N3C[C@@H](C(=O)Nc4cc(Cl)ccc4OC)CC3=O)ccc21`, the “% Inhibition” value is reported as -4% and the Z score is listed as 0.7.
As for `FC1(F)CCC(Cn2ccnn2)CC1`, the “% Inhibition” value is on record as 10% and the Z score is recorded as -2.01.
Regarding `COc1cccc(CNC(=O)CCc2c(C)nn(-c3cc(N4CCOCC4)ncn3)c2C)c1`, the “% Inhibition” value is on record as -5% and the Z score turned out to be 1.06.
The corresponding values for `CCc1onc(C)c1C(=O)N(C)C[C@H]1CCCCO1` are -9% and 1.29.
In the same order, the values of `COc1ccccc1[C@@H]1C=C(C(=O)O)Nc2c(C(=O)Nc3cccc(C)c3)cnn21` are 5% and -0.57.
The corresponding values for `CCc1ccsc1C(=O)N[C@H](C)CC(=O)O` are -5% and 0.78.
Regarding `CCONC(=O)NCCc1ncc(C)s1`, the “% Inhibition” value is -4% and the Z score is 0.64.
For the molecule `Cc1noc(C)c1S(=O)(=O)N(C)C1CCCCCC1`, the “% Inhibition” value was -9% and the Z score came out at 1.29.
The corresponding values for `COCc1cc(C)n(CC#N)c(=O)c1C#N` are 38% and -1.29.
In the same order, the values of `Cc1c(Cl)cccc1S(=O)(=O)N1CC[C@H](n2cc(-c3ccccc3)nn2)C1` are -12% and 1.34.
